Measurements reported in PubChem BioAssay AID1508642 (National Center for Advancing Translational Sciences (NCATS), 2021).
Out of some 43,000 compounds screened, about 200 (0.47%) were called active. Roughly 12% stayed inconclusive and do not appear here. Calls follow the shape of the dose curve; as a rule, active = well fitted cell-killing curve with a large enough effect; inconclusive = small, poorly fitted or top-dose-only effect, or effect the other way; inactive = flat fitted curve, though single readings scatter. Some of the results follow.

Assay: Cell viability qHTS assay in S16 Pmp22-F2sN cells; also: nearly all actives have a fitted effect of over 65% in size
Conditions: S16 Pmp22-F2sN Schwann cells (luciferase reporters placed in the Pmp22 gene) viability, CellTiter-Glo, 24 h; series mostly up to 57.5 µM; activity change, negative = cytotoxicity: at the top concentration
In short: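 S16 Schwann cells carrying the Pmp22-F2sN reporter, seeded in 1536-well format, were exposed to library compounds for 24 h at 37C. Viability was read as CellTiter-Glo luminescence after 15 min at room temperature.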
% is scaled to controls: 0 for no effect and ±100 for the full control effect.

Compound	activity change, negative = cytotoxicity
COC(=O)c1cc2sccc2n1Cc1c(C)cc(C)cc1C	inactive: 4.5%
COc1ccc(NC(=O)C2CCCN(S(=O)(=O)c3ccc4[nH]c(=O)ccc4c3)C2)cc1Cl (stereo unspecified)	inactive: 6.1%
NC(=O)c1c(NC(=O)CS(=O)(=O)c2ccc(Cl)cc2)sc2c1CCCC2	inactive: -4.41%
O=C(c1cccc(Cl)c1)N(Cc1cccc(F)c1)C1CCS(=O)(=O)C1 (stereo unspecified)	inactive: 2.96%
CCCSc1nnc(NC(=O)c2cc(=O)c3ccccc3o2)s1	inactive: 6.28%
COc1ccc(S(=O)(=O)N(CCc2ccccc2)CC(=O)Nc2cc(Cl)ccc2C)cc1	inactive: -2.97%
CCOC(=O)N1CCc2c(sc3c2c(=O)n(CCc2ccccc2)c(=O)n3CC(=O)Nc2ccccc2C)C1	inactive: -0.155%
Cc1ccc(-c2nn(CCC(=O)Nc3ccc(OC(F)(F)F)cc3)c(=O)c3ccccc23)cc1	inactive: 6.69%
Cc1ccc(NC(=O)C2CCN(C(=O)c3sc4nc[nH]c(=O)c4c3C)CC2)cc1F	inactive: 7.91%
COc1ccccc1C(=O)Nc1ccccc1OCc1cc(=O)n2cc(C)sc2n1	inactive: 11.2%
CCOc1cccc(C(=O)N(Cc2ccc(C(C)C)cc2)C2CCS(=O)(=O)C2)c1 (stereo unspecified)	inactive: -10.4%
COc1ccc(Cc2c(C)nn(-c3nc(C)c(C(=O)Nc4cccc(C(C)=O)c4)s3)c2C)cc1	inactive: -3.05%
CCS(=O)(=O)c1nc(S(=O)(=O)c2ccc(Cl)cc2)c(NCc2ccc(Cl)cc2)s1	inactive: 2.96%
CCOC(=O)c1[nH]c(C)c(CCC(=O)N2CCN(c3ccc(Cl)cc3)CC2)c1C	inactive: -30.3%
COc1ccc(-c2ccc(=O)n(CC(=O)Nc3ccc(Br)cc3F)n2)cc1	inactive: 10.2%
Cn1c(=O)c2c(-c3ccccc3)n(-c3cccc(C#N)c3)cc2n(C)c1=O	inactive: 3.93%
O=C(O)c1ccc(Nc2ncnc3scc(-c4ccccc4)c23)cc1	inactive: -0.215%
Cc1ccc2c(c1)N(C(=O)c1ccc(F)cc1)C(C)(C)CC2(C)c1ccccc1 (stereo unspecified)	inactive: -3.73%
COC(=O)c1cc(OC)c(OC)cc1NC(=O)c1ccc2c(c1)CCN2S(C)(=O)=O	inactive: -0.7%
CCc1ccccc1N1C(=O)N(Cc2cc(=O)n3ccccc3n2)c2ccccc2S1(=O)=O	inactive: 16.1%
O=C(NCc1ccccc1)c1c2c(nc3ccccc13)C(=O)N(C1CCCCC1)C2	inactive: 7.1%

Compound	activity change, negative = cytotoxicity
CCC(C(=O)NCc1ccccc1Cl)n1c(=O)c2cccn2c2ccccc21 (stereo unspecified)	inactive: -0.812%
Cc1cc(OC(C)C(=O)N(Cc2ccco2)Cc2ccco2)cc(C)c1Cl (stereo unspecified)	inactive: -18.5%
CC(C)c1ccc(NC(=O)[C@H]2O[C@@H]3OC(C)(C)O[C@@H]3[C@H]3OC(C)(C)O[C@H]32)cc1	inactive: 23.9%
Cc1nn(CC(=O)N2CCN(c3ccccc3F)CC2)c(=O)c2cccn12	inactive: 6.47%
CCN(CC)c1ccc2nc3c(=O)n(C)c(=O)n(C)c3nc2c1	inactive: 5.16%
CCOc1ccc(-c2nnc(SCC(=O)NC3CCCCC3)nc2-c2ccc(OCC)c(OC)c2)cc1OC	inactive: -7.12%
CCN1C(=O)c2ccccc2S(=O)(=O)c2ccc(C(=O)NCc3ccc(C)cc3)cc21	inactive: 3.62%
COc1ccc(CNC(=O)CCn2c(=O)c3cccn3c3ccc(F)cc32)cc1OC	inactive: -3.68%
CCc1ccc2occ(CC(=O)Nc3nnc(SC)s3)c2c1	inactive: -1.26%
CCn1nc(C)c(CCN(C)C(=O)Nc2cc(Cl)c(OC)cc2OC)c1C	inactive: 7.34%
O=C(CSc1oc(-c2ccc(F)cc2)nc1S(=O)(=O)c1ccccc1)c1ccc(Cl)cc1	inactive: 2.49%
CC(C)c1nn2c(=O)cc(COC(=O)c3cccc(NC(=O)CCc4ccccc4)c3)nc2s1	inactive: -11.9%
CCN(Cc1ccccc1)C(=O)Cn1c(=O)cc(C)c2c(C)nn(-c3cccc(F)c3)c21	inactive: -15.2%
COc1ccc(NC(=O)CN2C(=O)C(c3ccccc3)=NC23CCC(C)CC3)cc1Cl (stereo unspecified)	inactive: -18.1%
CCOC(=O)C(Cc1ccccc1)NC(=O)Cn1nnc(-c2ccc(C)cc2)n1 (stereo unspecified)	inactive: 21.6%
CN(C)S(=O)(=O)N(CC(=O)NCCSCc1ccc(Cl)cc1Cl)c1ccccc1	inactive: -6.04%
CSc1ccc(CCNC(=O)C2CCCN(S(=O)(=O)N(C)c3ccc(F)cc3)C2)cc1 (stereo unspecified)	inactive: -4.84%
COc1ccc(C(C)C)cc1S(=O)(=O)NCCc1c(C)[nH]c2c(Cl)cccc12	inactive: -17.7%
C[C@H](NC(=O)OC(C)(C)C)c1nnc(SCc2ccc(Cl)cc2Cl)o1	inactive: 25.2%
COc1ccc(-n2ccnc(NCCc3ccc(S(N)(=O)=O)cc3)c2=O)cc1Cl	inactive: -28.8%
Cc1cccn2c(=O)cc(COc3cccc(NC(=O)Nc4cccc(Cl)c4)c3)nc12	inactive: 3.21%

Compound	activity change, negative = cytotoxicity
O=C1Cc2cc(S(=O)(=O)Nc3cccc(C(F)(F)F)c3)cc3c2N1CCC3	inactive: -15.6%
Cc1ccc(NC(=O)Cn2cc(S(=O)(=O)Cc3ccccc3)c3ccccc32)cc1C	inactive: -16.4%
COC(=O)c1cc2occc2n1Cc1nc(-c2ccc(Cl)cc2)oc1C	inactive: 7.72%
CCc1ccc(S(=O)(=O)c2cn(C)c3ccc(C)cc3c2=O)cc1	inactive: 9.29%
CCOC(=O)c1ccc(N2C(=O)c3n[nH]c(C)c3C2c2ccc(CC)cc2)cc1 (stereo unspecified)	inactive: 25.4%
CCc1ccccc1NC(=O)Cn1nc(C)c2nn(-c3ccc(Cl)cc3)c(C)c2c1=O	inactive: -1.17%
CCOCCCNC(=O)CN1C(=O)CCn2nc(-c3cccn3C)cc21	inactive: 1.74%
CCCCN(CC)CCCNC(=O)c1nn(-c2ccc(OC)cc2)c(=O)c2c1c1ccccc1n2C	inactive: 26.7%
O=C(Nc1ncc(Cc2ccccc2Cl)s1)c1ccc2c(c1)CC(c1ccccc1)OC2=O (stereo unspecified)	inactive: 9.76%
CNC(=O)C1CCC(Cn2c(=O)c3sccc3n(CC(=O)Nc3ccccc3)c2=O)CC1 (stereo unspecified)	inactive: -24.5%
CC1CCc2nc3ncn(Cc4cccc(F)c4)c(=O)c3cc2C1 (stereo unspecified)	inactive: -1.69%
Cc1ccc(NC(=O)Cn2c(=O)n(CC(=O)NCCc3ccccc3)c(=O)c3ccccc32)cc1	inactive: 23.3%
CCc1ccccc1NC(=O)Cn1nnc(C(=O)NCc2cccc(OC)c2)c1N	inactive: -19.1%
COc1ccc(CC(=O)Nc2nnc3n2CCS3)cc1OC	inactive: -24%
COc1ccc(CNC(=O)CCc2c(C)nc3c4cccnc4nn3c2C)cc1	inactive: 11.4%
COCCNC(=O)c1cc(-c2cccc(Cl)c2)on1	inactive: 1.67%
CCCCN(CC)CCCNC(=O)c1sc2nc3n(c(=O)c2c1C)CCCCC3	inactive: 4.27%
Cc1ccc(CCNC(=O)CCCn2c(=O)c3cccn3c3ccc(F)cc32)cc1	inactive: -8.95%
COc1ccc(OC)c(NC(=O)N2CCC3(CC2)Oc2ccccc2C(=O)N3Cc2ccccc2F)c1	inactive: -4.23%
